PubChem BioAssay AID504332 (National Center for Advancing Translational Sciences (NCATS), 2011)
About 31,000 (8.9%) of roughly 350,000 compounds were called active. Inconclusive results, whose numbers are uncertain, are shown with a selection of clear calls. Calls come from the whole dose curve; as a rule, active = well fitted inhibition curve with a large enough effect; inconclusive = small, poorly fitted or top-dose-only effect; inactive = no such curve, though single readings can be large or run the other way. Potencies beside an inconclusive call are fits to weak or partial responses and may not hold up.

target: Histone-lysine N-methyltransferase EHMT2 (Homo sapiens) (UniProt Q96KQ7); assay: qHTS Assay for Inhibitors of Histone Lysine Methyltransferase G9a; details: G9a H3K9 monomethylation, AlphaScreen, 2 h; activity, negative = inhibition: at 59 µM (top of the series) unless noted; note: nearly all actives have a fitted effect of over 75% in size
How it was run: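 G9a (20 nM) preincubated 15 min RT with compounds, then 500 nM biotinylated H3K9 peptide and 20 uM SAM added; 2 h RT reaction. Monomethyl-H3K9 product detected by AlphaScreen with anti-H3K9me1 antibody, streptavidin donor and anti-rabbit IgG acceptor beads.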
% is set by controls: 0 for no effect and ±100 for the full control effect; potency is the fitted concentration of half-maximal effect; tags give direction and shape of the fitted curve.

UniProt Q96KQ7, sequence (Q96KQ7 whole entry, looked up): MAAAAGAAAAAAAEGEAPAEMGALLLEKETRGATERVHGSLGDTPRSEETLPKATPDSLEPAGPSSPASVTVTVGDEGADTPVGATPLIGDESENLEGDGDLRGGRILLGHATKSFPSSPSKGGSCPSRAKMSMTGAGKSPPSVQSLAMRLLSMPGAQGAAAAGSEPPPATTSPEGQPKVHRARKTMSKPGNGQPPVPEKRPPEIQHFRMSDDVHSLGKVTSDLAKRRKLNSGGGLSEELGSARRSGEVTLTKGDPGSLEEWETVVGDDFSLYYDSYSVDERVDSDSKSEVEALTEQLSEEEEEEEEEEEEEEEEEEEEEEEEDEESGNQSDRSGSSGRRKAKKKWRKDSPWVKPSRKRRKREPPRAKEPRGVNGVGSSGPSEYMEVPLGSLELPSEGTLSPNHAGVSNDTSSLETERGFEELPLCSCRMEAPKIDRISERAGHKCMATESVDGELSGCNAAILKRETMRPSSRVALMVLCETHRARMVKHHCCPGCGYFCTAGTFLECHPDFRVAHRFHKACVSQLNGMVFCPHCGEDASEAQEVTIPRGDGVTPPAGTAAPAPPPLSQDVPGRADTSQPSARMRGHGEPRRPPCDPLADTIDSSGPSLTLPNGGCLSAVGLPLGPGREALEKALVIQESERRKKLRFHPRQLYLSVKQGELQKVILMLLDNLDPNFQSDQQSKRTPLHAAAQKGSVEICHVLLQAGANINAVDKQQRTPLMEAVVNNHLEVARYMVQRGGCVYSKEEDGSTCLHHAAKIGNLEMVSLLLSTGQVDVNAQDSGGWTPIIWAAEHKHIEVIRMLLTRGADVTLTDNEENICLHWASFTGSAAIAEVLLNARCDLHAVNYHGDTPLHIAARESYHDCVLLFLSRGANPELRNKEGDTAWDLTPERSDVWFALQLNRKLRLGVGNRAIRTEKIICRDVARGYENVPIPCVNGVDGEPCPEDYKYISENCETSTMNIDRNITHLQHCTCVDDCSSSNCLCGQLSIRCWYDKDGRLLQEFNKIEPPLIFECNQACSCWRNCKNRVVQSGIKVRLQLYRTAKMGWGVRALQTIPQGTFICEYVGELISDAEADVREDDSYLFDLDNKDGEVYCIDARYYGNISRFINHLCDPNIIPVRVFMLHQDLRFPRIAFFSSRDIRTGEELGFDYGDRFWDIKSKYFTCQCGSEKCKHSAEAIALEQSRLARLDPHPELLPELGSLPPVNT

SMILES	activity, negative = inhibition	Potency
COC(=O)c1ccc2c(=O)n(CCc3ccc(S(N)(=O)=O)cc3)c(SCC(=O)C(C)(C)C)nc2c1	inactive: 1.58%	–
O=[N+]([O-])c1ccc(CN2C=NS(=O)(=O)c3ccccc32)cc1	–	inconclusive: 79.4 µM [inhibitor, partial curve, poor fit]
COc1ccc(-c2cc(C(F)(F)F)n3ncc(-c4ccccc4)c3n2)cc1	–	inconclusive: 2.82 µM [inhibitor, full curve, poor fit]
Cc1ccc(C(=O)NC(=S)N(C)C2CCCCC2)cc1	–	inconclusive: 44.7 µM [inhibitor, partial curve]
COc1ccccc1CCNC(=O)CCn1c(=O)oc2ccccc21	–	inconclusive: 0.708 µM [inhibitor, partial curve, poor fit]
CCOc1ccc(NC(=O)CSc2nc(O)c(C)c(=O)n2-c2ccc(F)cc2)cc1	–	inconclusive: 50.1 µM [inhibitor, single point]
Cc1ccc(-c2nc3c(c(=O)[nH]c(=O)n3CC(C)C)n2CC(C)C)cc1[N+](=O)[O-]	–	inconclusive: 28.2 µM [inhibitor, partial curve]
O=C(CSc1nnc(COc2ccc(F)cc2)o1)N1c2ccccc2CCc2ccccc21	inactive: 51.3%	–
CN(CCc1ccccn1)C(=O)CCC1CCCN(C(=O)NC2CCCCC2)C1 (centres undefined)	inactive: 10% [at 102 µM]	–
O=C(COc1ccccc1/C=C\c1[nH]c(=O)[nH]c(=O)c1[N+](=O)[O-])Nc1ccccc1	–	inconclusive: 79.4 µM [inhibitor, single point]
Cc1ccc(N(Cc2ccccc2)C(=O)c2cc(S(=O)(=O)N3CCOCC3)ccc2C)cc1	inactive: -10.7% [at 2.33 µM]	–
CCOC(=O)C1=C(C)n2c(s/c(=C/c3cccc([N+](=O)[O-])c3)c2=O)=NC1c1ccc(O)c(OC)c1 (centres undefined)	–	inconclusive: 28.2 µM [inhibitor, single point]
Cc1csc(NC(=O)c2cnccn2)n1	–	active: 3.55 µM
CC(Oc1ccccc1Cl)C(=O)Nc1ccccc1C(=O)N1CCOCC1 (centres undefined)	inactive: -11.2% [at 102 µM]	–
C#CCOCCOCCOCCNc1nc(N2CCN(C(=O)[C@H](CCC(=O)O)n3cc(C(N)CO)nn3)CC2)nc(N2CCN(C(=O)[C@H](Cc3ccc(O)cc3)n3cc(C(N)CC(C)C)nn3)CC2)n1 (some centres undefined)	–	inconclusive: 3.55 µM [inhibitor, partial curve, poor fit]
Cc1cc(C(=S)N2CCOCC2)c(C)n1-c1ccc(Cl)cc1	–	active: 3.16 µM
Cc1c(C)c2ccc(OCC(=O)N3CCOCC3)c(C)c2oc1=O	inactive: -8.63%	–
COc1cc(C)c(C(=O)Oc2cc(C)c(C(=O)O)c(O)c2C)c(OC)c1C	inconclusive: -53.1% [inhibitor]	–
CCN1CCN(C(=O)C2CCN(c3nnc(C)c4c(C)n(-c5ccc(C)cc5)nc34)CC2)CC1	–	inconclusive: 89.1 µM [inhibitor, single point]
O=C(CSc1nc2ccccc2n1CC(=O)N1CCCC1)NCc1ccc2c(c1)OCO2	–	inconclusive: 1.78 µM [inhibitor, partial curve, poor fit]
Cc1ccc(S(=O)(=O)CC(=O)Nc2nc3c(C)cccc3s2)cc1	inactive: 7.59%	–
CC1CCCN(C(c2cccs2)c2nnnn2Cc2ccccc2)C1 (centres undefined)	–	inconclusive: 8.91 µM [inhibitor, partial curve, poor fit]
COc1ccccc1Nc1nc(N)nc(N)c1S(=O)(=O)c1ccccc1	inactive: 27.8%	–

SMILES	activity, negative = inhibition	Potency
Cc1c(-n2cc(C(=O)c3ccccc3O)cc(C#N)c2=O)c(=O)n(-c2ccccc2)n1C	–	inconclusive: 63.1 µM [inhibitor, partial curve, poor fit]
C1CCN=C(Nc2nn[nH]n2)CC1	inconclusive: -85.1% [inhibitor]	–
O=C(c1cccc(Br)c1)N1CCN(c2cnn(-c3ccccc3)c(=O)c2Cl)CC1	inactive: 0.363% [at 102 µM]	–
CN(C)CCCN(C(=O)c1cc(-c2cccs2)nc2ccccc12)c1nc2ccc(F)cc2s1	–	inconclusive: 56.2 µM [inhibitor, partial curve, poor fit]
CC1(C)CC(=O)C=C(NC2=CC3OC(c4ccccc4)OCC3OC2=O)C1 (centres undefined)	–	inconclusive: 89.1 µM [inhibitor, single point]
O=C(Nc1ccc(Cl)c(C(F)(F)F)c1)c1nc2ccccc2nc1N1CCCCC1	inactive: -35.3%	–
CC(OC(=O)c1ccc(S(=O)(=O)NCc2ccco2)cc1)C(=O)Nc1ccc(Cl)cn1 (centres undefined)	–	inconclusive: 25.1 µM [inhibitor, single point]
CCOc1ccccc1C=Nc1ccccc1C(=O)Nc1ccccc1	inactive: 28.9%	–
COc1cccc(NC(=O)/C(C#N)=C/c2c(C)n(Cc3ccccc3)c3ccccc23)c1	inactive: -0.494%	–
O=C(NCCCN1CCOCC1)c1ccc2c(=O)n(Cc3ccccc3)c(=S)[nH]c2c1	–	active: 50.1 µM
CN(C)c1ccc(C(=O)NNC(=O)Nc2ccccc2)cc1	–	inconclusive: 20 µM [inhibitor, partial curve, poor fit]
O=C(CCCN1C(=O)/C(=C/c2ccccc2Cl)SC1=S)Nc1ccccn1	–	active: 12.6 µM
O=C(CN1CCc2cc3c(cc2C1)OCCCO3)Nc1cccc([N+](=O)[O-])c1	–	active: 39.8 µM
CCc1cccc(CC)c1NC(=O)COC(=O)CCc1cc(OC)c(OC)c(OC)c1	–	inconclusive: 7.94 µM [inhibitor, partial curve, poor fit]
COC(=O)n1c(=S)oc2cc(Cl)ccc21	–	active: 2.51 µM
O=S(=O)(Cc1ccccc1Cl)NCCc1ccccc1	inactive: 3.08% [at 102 µM]	–
O=C(c1ccccc1)N1CCCCC(S(=O)(=O)c2ccccc2)C1=O (centres undefined)	inactive: 35.9% [at 102 µM]	–
O=C(c1ccc(Cl)c(S(=O)(=O)N2CCCCC2)c1)N1CCCC(C(F)(F)F)C1 (centres undefined)	inactive: 24.8%	–
Cc1ccc(S(=O)(=O)N(CC(=O)Nc2ccccc2C(=O)O)c2ccccc2C)cc1	–	inconclusive: 79.4 µM [inhibitor, single point]
CC1=NN(c2ccccc2)C(=O)C1/C=C1\NC(=S)NC1=O (centres undefined)	–	inconclusive: 22.4 µM [inhibitor, partial curve, poor fit]
O=C(Nc1ncn[nH]1)c1ccc(Cl)cc1Cl	–	inconclusive: 89.1 µM [inhibitor, single point]
O=C1NN(c2ccc(F)cc2)C(=O)/C1=C/c1cccs1	–	active: 44.7 µM
CCOc1cc(CNCCCN2CCOCC2)cc(Br)c1OCC(=O)Nc1cccc(C(F)(F)F)c1	–	inconclusive: 56.2 µM [inhibitor, single point]

SMILES	activity, negative = inhibition	Potency
COc1cccc(NC(=O)C(c2ccccc2)N2CCNC(=O)C2)c1 (centres undefined)	–	inconclusive: 44.7 µM [inhibitor, partial curve, poor fit]
Cc1ccc(NC(=O)CSc2nc3ccc(Nc4nc(N5CCOCC5)nc(N5CCOCC5)n4)cc3s2)cc1	–	active: 35.5 µM
COc1ccc2cc(C(=O)N3CCN(c4ccccc4F)CC3)[nH]c2c1	inactive: -45.5% [at 102 µM]	–
O=C(c1ccco1)N1CCN(C(=O)c2ccccc2Oc2ccccc2)CC1	–	inconclusive: 17.8 µM [inhibitor, single point]
COCCNC(=O)CNC(c1ccccc1)c1ccccc1	–	active: 44.7 µM
COc1ccc(C(=O)NC(=S)Nc2ccc(Cc3ccncc3)cc2)cc1	–	inconclusive: 10 µM [inhibitor, full curve, poor fit]
N#C/C(=C\c1ccccc1)C(=O)Nc1cc(S(=O)(=O)N2CCOCC2)ccc1N1CCCC1	–	active: 44.7 µM
O=C(COc1ccc(C(=O)NCC2CCCO2)cc1)Nc1cccc(C(F)(F)F)c1 (centres undefined)	–	inconclusive: 1.26 µM [inhibitor, full curve, poor fit]
CC(Sc1nc2ccccc2s1)C(=O)N1CCOCC1 (centres undefined)	–	inconclusive: 44.7 µM [inhibitor, partial curve, poor fit]
Cc1ccc(C)n1-c1nccc(-c2ccco2)n1	–	inconclusive: 89.1 µM [inhibitor, partial curve, poor fit]
CCn1c(CCNC(=O)c2cccs2)n[nH]c1=S	–	inconclusive: 25.1 µM [inhibitor, single point]
Cc1ccc(-c2csc3nnc(SCC(=O)NCc4ccco4)n23)cc1	–	active: 17.8 µM
COc1ccc(Cl)cc1NC(=O)CN(C)Cc1ccc(OC)c(OC)c1	–	active: 4.47 µM
COc1ccc2c(c1)CC/C(=C\c1ccc(OC)c(Cn3cccn3)c1)C2=O	–	inconclusive: 70.8 µM [inhibitor, single point]
O=c1c2oc3ccccc3c2[nH]c(=S)n1-c1ccccc1	–	active: 8.91 µM
Cc1ccc(C(=O)Nc2cccc(-c3ccc(N4CCOCC4)nn3)c2)cc1[N+](=O)[O-]	–	inconclusive: 39.8 µM [inhibitor, partial curve]
CCN(c1ccccc1)S(=O)(=O)c1ccc(OCc2c(C)noc2C)cc1	inactive: 11.9% [at 12.7 µM]	–
CCOc1ccccc1CNS(=O)(=O)c1ccc2[nH]c(=O)sc2c1	inconclusive: -60.3% [inhibitor] [at 12.7 µM]	–
COc1ccc(C(=O)Nc2ccc3c(c2)CCCN3S(=O)(=O)c2ccc(C)cc2)c(OC)c1	inactive: 17.6%	–
Cc1cccc(NC(=O)CN2CCCN(S(=O)(=O)c3ccc(Br)s3)CC2)c1	–	active: 39.8 µM
COc1ccc(NC(=O)c2cccnc2Nc2ccc(OC)cc2)cc1	–	active: 50.1 µM
CCCc1cc2c(=O)c(-c3ccc4c(c3)OCCO4)c(C)oc2cc1OS(C)(=O)=O	–	inconclusive: 39.8 µM [inhibitor, partial curve, poor fit]
CCN1CCN(c2cc(C)c3cc(NC(=S)NCCCOC)ccc3n2)CC1	–	inconclusive: 89.1 µM [inhibitor, single point]
